Test results taken from ChEMBL document CHEMBL4888484, “Replenishing the malaria drug discovery pipeline: Screening and hit evaluation of the MMV Hit Generation Library 1 (HGL1) against asexual blood stage Plasmodium falciparum ,using a nano luciferase reporter read-out” (2022).
In all, about 150,000 compounds went through this assay and about 540 (0.36%) showed an effect of 50% or more. The list shows a part of the results.

Test system: Plasmodium falciparum
Test: Primary screen in NF54 nanoGlo assay, in single point, at 2uM, 72h; a lower Z score goes with more inhibition
Format: functional, Erythrocyte
Settings: timepoint 72 hour

SMILES | % Inhibition [%] | Z score
O=C(Nc1ccc2c(c1)N(C(=O)c1ccccc1)CCC2)c1ccccc1Cl | -15 | 1.49
COc1cc(=O)[nH]cc1C(=O)N1CCO[C@H]2CCC[C@H]21 | -6 | 0.69
CCCN(CCC)Cc1ccc(C(=O)N2C3CCC2CC(Oc2cccc(C(F)(F)F)c2)C3)cc1 (stereo unspecified) | 3 | -0.53
C[C@H]1CCCCN1CCNC(=O)N(Cc1cccc(O)c1)CC1CC1 | -10 | 1.13
c1cnn(-c2cncc(NCC3CCCCCCC3)n2)c1 | 1 | -0.11
COc1ccc(C(=O)N2CCC3(CC2)OC[C@@H](C(=O)N2CCOCC2)N3C(=O)c2ccc(C)cc2)cc1 | 7 | -1.34
Cc1ccc(-c2nnc3n2CC(C)(C)CC3)o1 | -7 | 1.23
Cc1c(C(=O)N(C)Cc2cscn2)n(C)c2c(C)cccc12 | -5 | 0.53
Cc1n[nH]c(C)c1CCC(=O)N(C)Cc1ccoc1 | -11 | 1.57
CCC(C)NC(=O)CN1C[C@H](C(=O)OC)[C@@H](c2cncn2C)C1 (stereo partly specified) | -10 | 2.17
Cc1nc(Nc2ccc(N3CCOCC3)cc2)cc(-c2ccccc2)n1 | 6 | -1.02
Cc1ccnc2nc(C(=O)OCc3cccc4cccnc34)nn12 | 11 | -1.53
O=C1NC2(CCCC2)C(=O)N1c1nc(C(F)(F)F)cs1 | -10 | 1.38
CC(C)CCC(=O)NCC(=O)NCC1CCCOC1C(C)(C)C (stereo unspecified) | -5 | 0.97
c1cnn(Cc2ccc(-c3nc([C@H]4CCOC4)no3)o2)c1 | -8 | 1.58
Cc1cccc(N2C(=O)c3ccc(C(=O)Nc4cccc(NC(=O)c5c(-c6ccccc6Cl)noc5C)c4)cc3C2=O)c1 | 13 | -1.64
C[C@]1(Cc2cccc(F)c2)CCCN1C(=O)c1cnn2c1CCC2 | 1 | -0.14
O=C(C1CC1c1ccc2c(c1)OCCO2)N1CCCC(n2ccnn2)C1 (stereo unspecified) | 6 | -0.89
Cc1coc(-c2ccc(C)c(S(=O)(=O)N3CCCC[C@H]3C(=O)O)c2)n1 | -8 | 1.37
Cc1cccnc1N(C)C(=O)c1ccnc(C2CC2)n1 | -5 | 0.98
COc1ccc(C(=O)NCC(=O)Nc2ccc3c(c2)OCCCO3)cc1 | -16 | 2.13

SMILES | % Inhibition [%] | Z score
CCOC(=O)CN(CC1CC1)C(=O)CCc1ccc(F)cc1 | -9 | 1.4
CC(C)C1C(c2ccccc2)NC(c2ccccc2)CC1(O)c1ccc(F)cc1 (stereo unspecified) | 5 | -0.6
Cc1ccccc1N1CCN(c2ncccc2CNC(=O)[C@@H]2C[C@@H](O)CN2)CC1 | -7 | 1.03
COc1ccc([C@H]2C(=O)N(C3CCCCCC3)CC(=O)N2Cc2ccc(F)cc2)cc1 | 0 | -0.01
C#CC(CC)(CC)NC(=O)COc1ccccc1F | -5 | 0.67
O=C(c1ccc(Cl)c(S(=O)(=O)N2CCCCCC2)c1)N(C1CCCC1)C1CC1 | -10 | 0.91
CC(C)(C)OC(=O)N1CCc2nccc(O)c2C1 | -7 | 1.31
COc1cc(Cc2ncnn2C2Cc3ccccc3C2)cc(OC)c1OC | -10 | 1
Cc1ccc(C(=O)N(C)CCN(C)C(=O)c2ccc(Cl)cn2)c(C(C)C)n1 | 11 | -1.45
Cc1nnc(C2CCN(CC(=O)Nc3ccc(C)c(Cl)c3)CC2)s1 | -5 | 0.92
CCCN(CCC)c1cc(Oc2cc(C)ccc2Cl)ncn1 | 22 | -2.48
Cc1cc2c(cc1C(=O)N1CCC[C@H](Cn3ccnc3)C1)OCCO2 | -17 | 1.48
Cc1cc(NC(=O)c2cnc3c(C)cccn3c2=O)[nH]n1 | 1 | -0.12
O=C(O)c1cc(S(=O)(=O)N2CC[C@H](c3ccccc3)C2)cs1 | -17 | 2.1
O=C1CCN(c2ncc(-c3cc(F)ccc3OCC(F)(F)F)cn2)CCN1 | 3 | -0.57
O=C(O)CC[C@H]1CCCN(c2nc(C3CC3)nc3[nH]ccc23)C1 | -14 | 1.75
Clc1cccc(-c2nc(-c3cccc4ccccc34)c(-c3ccccc3)[nH]2)c1 | -4 | 0.56
COc1ccc(C)cc1-c1cnc2nncn2c1 | -3 | 0.55
CC(C)c1nc([C@H]2CCCN(Cc3nccc4c3CCCC4)C2)no1 | 32 | -3.71
Cc1ccc(C)c(C(=O)N2CCCC[C@H]2C(=O)N2CCOCC2)c1 | 3 | -0.67
Cc1nn(C)c(C)c1S(=O)(=O)N1CC[C@H](S(=O)(=O)c2ccc(Cl)cc2)C1 | 1 | -0.21

SMILES | % Inhibition [%] | Z score
COc1ccc(-c2ccc(CNC(=O)[C@@H]3CCCN3)s2)cc1 | -7 | 0.66
O=S(=O)(CCC1CC1)N1CCc2cccc(Br)c2C1 | -2 | 0.35
CN(Cc1ncc[nH]1)C(=O)C1(N(C)CCc2ccccc2)Cc2ccccc2C1 | 11 | -1.37
Cc1cnc(C(=O)NC[C@H](O)Cn2ccnn2)c(C)c1 | 4 | -0.58
CC(C)(C)C1CC(NC(=O)C2CC=CC2)CCO1 (stereo unspecified) | 36 | -4.91
CCOCCCN1C(=O)c2nc3ccccc3n2C[C@@]1(C)C(=O)NC1CCCCCCC1 | -6 | 0.57
COc1ccc(NC(=O)NC[C@]2(C)CCC[C@]3(C)c4ccc(C(C)C)cc4CCC23)c(OC)c1 (stereo partly specified) | 6 | -0.52
C#C[C@@H](NC(=O)c1cc(Cl)c2c(c1)OCCCO2)C1CCOCC1 | -6 | 0.95
c1ccc(CN2CCN(CCCc3c[nH]c4ccccc34)CC2)cc1 | -5 | 0.82
C[C@@H](c1ccccc1)n1c(NC(=O)c2ccc(Cl)cc2)c(S(=O)(=O)c2ccccc2)c2nc3ccccc3nc21 | -15 | 1.3
NC(=O)[C@H]1CCCN1C(=O)Cc1cccc(Cl)c1F | -10 | 1.19
Brc1ccc(NCCOc2cccnc2)nc1 | -8 | 1.29
Cc1nn(CCOc2ccccc2)c(=O)n1-c1cccc(Cl)c1 | -6 | 0.93
O=C(C1COCCO1)N1CCCC1c1ccc(Cl)c(Cl)c1 (stereo unspecified) | -6 | 1.14
CC(C)C(=O)N1C2C=CC(C2)C1(C(F)(F)F)C(F)(F)F (stereo unspecified) | -5 | 0.53
N#Cc1cc(F)ccc1CO[C@H]1CCCc2c[nH]nc21 | -12 | 1.77
C#CCCC1(CCC(=O)Nc2cc(C)c3nccn3c2)N=N1 | -5 | 0.9
CC(C)Cn1ccc2c(cc(C(=O)NCc3ccc(F)c(Cl)c3)n2C)c1=O | -13 | 1.24
c1ccc(C2(c3nc(C4CCCC4)no3)CCOCC2)cc1 | -12 | 2.25
Cc1cc2ccccc2nc1N1CCC(c2ncc[nH]2)CC1 | -9 | 1.25
O=C(O)c1ccc(C(=O)N(CC2CCC2)CC(F)(F)F)cc1 | -8 | 1.22

SMILES | % Inhibition [%] | Z score
CN(C)CCN(C(=O)c1cc(N(C)C)ccn1)c1ccccc1 | -4 | 0.56
CCS(=O)(=O)N(CCN1CCCCC1)C1CN(C(=O)NC2CCCCC2)C1 | 7 | -0.96
COc1ccc2c(c1)c(CN1CCC(C(=O)NCCN3CCOCC3)CC1)cn2C | -11 | 1.48
CC1(CS(=O)(=O)NC2CCN(c3ncccn3)CC2)COC1 | 0 | 0.05
Cn1nc(CC(C)(C)C)cc1NC(=O)c1ncoc1C1CC1 | -16 | 2.1
COc1cc(-c2ccc(C(=O)N(C)Cc3c[nH]nc3C)cc2)nc(OC)n1 | -7 | 1.02
COC(=O)c1ccc(Cl)c(S(=O)(=O)Nc2ccn(Cc3cccc4cccnc34)n2)c1 | 8 | -1.08
Cc1cc([C@H](C)NS(=O)(=O)CCN2CCCC2)c(C)s1 | 2 | -0.22
O=C(Nc1cccc([C@H]2Nc3ccccc3C(=O)N2CC(F)(F)F)c1)c1ccccc1Cl | 11 | -2.04
c1ccc(-c2ncc3c(n2)CCC[C@@H]3NC2CCC2)cc1 | -13 | 1.4
CO[C@@H](CNC(=O)Nc1ccccc1C(F)(F)F)c1cc2ccccc2o1 | -13 | 2.16
C#CCCC1(CCC(=O)N2C3CCC2CC2(C3)CC2(F)F)N=N1 (stereo unspecified) | 6 | -0.77
Cc1nc2cc(S(=O)(=O)N3CCC(C(=O)NCc4cccc(F)c4)CC3)ccc2n1C1CCCC1 | -12 | 2.16
CC1(C)c2[nH]c3ccccc3c2C[C@H]2C(=O)N(CCc3ccccc3)CC(=O)N21 | -1 | 0.14
CCN1CCn2c(nn(CC(=O)Nc3cccc(F)c3)c2=O)C1=O | -10 | 1.13
CCn1cccc(NC(=O)NCCc2nnc3ccccn23)c1=O | -8 | 1.54
Cc1ccc([C@H]2CN(Cc3cccc(C#N)c3)C[C@@H]2N(C)C)cc1 | -3 | 0.4
C[C@@H](c1nc2cc(Cl)ccc2[nH]1)N(C)Cc1cnns1 | -10 | 1.33
O=C(NC[C@H]1COCc2nc3ccccc3n21)c1cccnc1 | -10 | 1.68
Cc1ccc(Cn2c(=O)c3nn(C)cc3n3c(=O)n(Cc4ccc(F)cc4)nc23)cc1 | 2 | -0.24
